# Assay results published in the RNAGym collection of RNA variant scans (doi:10.7554/elife.90254).
# The source gives no read counts; variants with many changes may rest on few reads.
# B1: LINE1-full (parent)
# chain: UACGUAGGUGGUUUUCCCCUGAUAGUGCUAAGGGGGCCUGGAAGUUUGGACUGGGCAGAGCUCAACACAGCGUGGCAAAGUGGCUGUGGCUAGACUGCCUCUCUGGAUUCCUCGUCACUCAGCAGGGCAUCUCUGAGAGAAAUGCC
# Variants of: B1
# Assay: self-cleavage, relative activity (ratio to wild type); higher = more cleavage; in vitro, sequencing; the parent is a self-cleaving ribozyme
row,Variant,self-cleavage
1,UACGUAGGUGGUUUUCCCCUGAUGGUGCUAAGGGGGCCUGGAAGUCUGGACUGGGCAGAGCUCAACACAGCGUGGCAAAGAGGCUGUGGCUAGACUGCCUCUCUGGAUUCCUCGUCACUCAGCAGGGCAUCUCUGAGAGGAAUGCC,2.08
2,UACGUAGGUGGUUUUCCCCUGAUGGUGCUAAGGGGGCCUGGAAGUUUGGACUGGGCAGAGCUCAACACAGCGUGGCAAAGAGGCUGUGGCUAGACUGCCUCUCUGGAUACCUCGUCACUCAGCAGGGCAUCUCUGAGAGAAAUGCC,1.67
3,UACGUAGGUGGUUUUCCCCUGAUGGUGCUAAGGGGGCCUGGAAGUCUGGACUGGGCAGAGCUCAACACAGCGUGGCAAAGUGGCUGUGGCUAGACUGCCUCUCUGGAUUCCUCGUCACUCAGCGGGGCAUCUCUGAGAGAAAUGCC,1.08
4,UACGUAGGUGGUUUUCCCCUGAUGGUGCUAAGGGGGCCUGGAAGUUUGGACUGGGCAGAGCUCAACACAGCGUGGCAAAGUGGCUGAGGCUAGACUGCCUCUCUGGAUUCCUCGUCACUCAGCAGGGCAUCUCUGGGAGAGAUGCC,0.13
5,UACGUAGGUGGUUUUCCCCUGAUGGUGCUAAGGGGGCCUGGAAGUCUGGACUGGGCAGAGCUCAACACAGCGUGUAAAAGUGGCUGUGGCUAGACUGCCUCUCUGGAUUCCUCGUCACUCAGCAGGGCAUCUCUGAGAGAAAUGCC,0.85
6,UACGUAGGUGGUUUUCCCCUGAUGGUGCUAAGGGGGCCUGGAAGCUUGGACUGGGCAGAGCUCAGCAUAGCGUGGCAAAGUGGCUGUGGCUAGACUGCCUCUCUGGAUUCCUCGUCACUCAGCAGGGCAUCUCUGAGAGAAAUGCC,0.04
7,UACGUAGGUGGUUUUCCCCUGAUGGUGCUAAGGGGGCCUGGAAGUUUGGACUGGGCAGAGCUCAACACAGCGUGGCAAAGUGGCAGUGGCUAGACUGCCUCUCUGGAUUCCUCGUCACUCAGCAGGGCACCCCUGAGAGAAAUGCC,0.19
8,UACGUAGGUGGUUUUCCCCUGAUGGUGCUAAGGGGGCCUGGAAGUUUGGACUGGGCAGAGCUCAACACAGCGAGGCAAAGUGGCUGUGGCUAGACUGCCUCUCUGGAUUCCUCGUCACUCAGCAGGGCAUCUCUGAGAGUAAUGCC,2.58
9,UACGUAGGUGGUUUUCCCCUGAUGGCGCUAAGGGGGCCUGGAAGUUUGGACUGGGCAGGGCUCAACACAGCGUGGCAAAGUGGCUGUGGCUAGACUGCCUCUCUGGAUUCCUCGUCACUCAGCUGGGCAUCUCUGAGAGAAAUGCC,0
10,UACGUAGGUGGUUUUCCCCUGAUGGUGCUAAGGGGGCCUGGAAGUUUGGACUGGGCAGAGCUCAACACAGCGUGGCAAAGUGGCUGUGGCAAGACUGCCUCUCUGGAUUCCUCGUCACUCAGCAGGGCAUCUCUGGGGGAAAUGCC,0.98
11,UACGUAGGUGGUUUUCCCCUGAUGGUGCUAAGGGGGCCUGGAAGUUUGGACUGGGCAGAGCUCAACACAGCGUGGCAAAGAGGCUGUGGCUAGACUGCCUCUCUGGAUUUCCCGUCACUCAGCAGGACAUCCCUGAGAGAAAUGCC,1.72
12,UACGUAGGUGGUUUUCCCCUGAUGGUGCUAAGGGGGCCUGGAAGUUUGGACAGGGCAAAGCUCAACACGGCGUGGCAAAGUGGCUGUGGCCAGACUGCCUCUCUGGAUUCCUCGUCUCUCAGCAGGGCAUCCCUGAGAGAGAUGCC,0
13,UACGUAGGUGGUUUUCCCCUGAUGGUGCUAAGGGGGCCUGGAAGUUUGGACUGGGCAGAGCUCAACACAGCGUGGCAAAGUGGCUGUGGCUAGACUGCCUCUCUGGACUCCCCGACACUCAGCAGGGCAUCUCUGAGAGAAAUGCC,1.88
14,UACGUAGGUGGUUUUCCCCUGAUGGUGCUAAGGGGGCCUGGAAGUUCGGACUGGGCAGAGCUCAACACAGCCUGGCAAAGUGGCUGUGGCUAGACUGCCUCUCUGGAUUCCUCGUCACUCAGCAGGGCAUCUCUGAGAGAAAUGCC,1.77
15,UACGUAGGUGGUUUUCCCCUGAUGGUGCUAAGGGGGCCUGGAAGUUUGGACUGGGCAGAGCUCAACACAGCGUGGCAAAAUGGCUGUGGCUAGGCUGCCUCUCUGGAUUCCUCGUCACUCAGCAGGGCAUCUCUGAGAGAAAUGCC,0.53
16,UACGUAGGUGGUUUUCCCCUGAUGGCGCUAAGGGGGCCUGGAAGUUUGGACUGGGCUGAGCUCAACACAGCGUGGCAAAGUGGCUGUGGCUAGACUGCCUCUCUGGAUUCCUCGUCACUCAGCAGGGCAUCUCUGAGGGAAAUGCC,0.25
17,UACGUAGGUGGUUUUCCCCUGAUGGAGCUAAGGGGGCCUGGAAGUCUGGACUGGGCUGAGCUCAACACAGCGUGGCAAAGUGGCUGUGGCUAGACUGCCUCUCCGGAUUCCUCGUCACUCAGCAGGGCAUCUCUGAGAGAAAUGCC,0
18,UACGUAGGUGGUUUUCCCCUGAUGGUGCUAAGGGGGCCUGGAAGUUUGGACUGGGCAGAGCUCAACACAGCGUGGCAAAGUGGCUGUGGCUAGACUGCCCCUCUGGAUUCCCCGUCACUCAGCAGGGCAUCUCUGAGAGAAAUGCC,1.48
19,UACGUAGGUGGUUUUCCCCUGAUGGUGCUAAGGGGGCCUGGAAGUUUGGACUGGGCAGAGCUCAACACAGCGCGGCAAAGUGGCUGUGGCCAGACUGCCUCUCUGGAUUCCUCGUCACUCAGCAGGGCAUCUCUGAGAGAAAUGCC,1.84
20,UACGUAGGUGGUUUUCCCCUGAUGGUGCUAAGGGGGCCUGGAAGUUUGGACUGGGCAGAGCUCAACACAGCGUGGCAAAGUGGCUGUGGCUAGACUGCCUCUCUGGAUGCCUCGUCACUCAGCAGGGCAUCUCUGAGAGAAGUGCC,1.58

row,Variant,self-cleavage
1,UACGUAGGUGGUUUUCCCCUGAUGGUGCUAAGGGGGCCCGGAAGUUUGGACUGGGCAGAGCUCAACACGGCGUGGCAGAGUGGCUGUGGCUAGACUGCCUCUCUGGAUUCCUCGUCACUCAGCAGGGCAUCUCUGAGAGAAAAGCC,0
2,UACGUAGGUGGUUUUCCCCUGAUGGUGCUAAGGCGGCCUGGAAGUUUGGACUGGGCAGAGCUCAACACAGCGUGGCAAAGUGGCUGUGGCUAGACUGCCUCUCUGGAUUCCUCGUCACUCAGCAGGGCAUCUCUGAGAGAAGUGCC,0.74
3,UACGUAGGUGGUUUUCCCCUGAUGGUGCUAAGGUGGCCUGGAAGUUUGGACUGGGCAGAGCUCAACACAGCGUGGCAAAGAGGCUGUGGCUAGACUGCCUCUCUGGAUUCCUCGUCACUCGGCAGGGCAUCUCUGAGAGAAAUGCC,1.84
4,UACGUAGGUGGUUUUCCCCUGAUGGUGCUAAGGGGGCCUGGAAGUUUGGACUGGGCAGAGCUCAACACAGCGAGGCAAAGUGGCUGUGGCUAGACUGCCUCUCUGGAUUCCUCGUCACUCAGCAGGGCAUCUCUGAGAGAAGUGCC,3
5,UACGUAGGUGGUUUUCCCCUGAUGGUGCUAAGGGGGCCUGGAAGUUAGGACUGGGCAGAGCUCAACACAGCGUGGCAAAGUGGCUGUGGCUAGACUGCCUCUCUGGAUUCCUCGUCGCUCAGCAGGGCAUCUCUGAGAGAAGUGCC,1.38
6,UACGUAGGUGGUUUUCCCCUGAUUGUGCUGAGGGGGCCUGGGAGUUUGGACUGGGCAGAGCACAACACAGCGUGGCAAAGUGGCUGUGGCUAGACUGCCUCUCUGGAUUCCUCGUCACUCAGCAGGGCAUCUCUGAGAGAAAUGCC,0
7,UACGUAGGUGGUUUUCCCCUGAUGGUGCUAAGGGGGCCUGGAAGUUUGGACUGGGCAGAGCCCAACACAGCGUGGCAAAGUGGCUGUGGCUAGACAGCCUCUCUGGAUUCCUCGUCACUCAGCAGGGCAUCUCCGAGAGAAAUGCC,0
8,UACGUAGGUGGUUUUCCCCUGAUGGUGCUAAGGGGGCCUGGAAGUCUGGACUGGGCAGAGCUCAACACAGCGUGGCAAAGUGGCUGUGGCUAGACUGCCUCUCUGGAUUCCUCGUCACUCAGCAGGGCAUCUCUGAGAGAAACGCC,2.3
9,UACGUAGGUGGUUUUCCCCUGAUGGUGCUAAGGGGGCCAGGAAGUUUGGACUGGGCAGAGCUCAACACAGCGUGGCAAAGUGGCUGUGGCUAGACUGCCUCUCUGGAUUCCUCGUCACUCAGCAGGGCACCUCUGAGAGAAAUGCC,1.26
10,UACGUAGGUGGUUUUCCCCUGAUGGUGCUAAGGGGGCCUGGAAGAUUGGACUGGGCAGCGCUCAACACAGCGUGGCAAAGUGGCUGUGGCUAGACUGCCUCUCUGGAUUCCUCGUCACUCAGCAGGGCAUCUCUGAGAGAAAUGCC,0.63
11,UACGUAGGUGGUUUUCCCCUGAUGGUGCUAAGGGGGCCUGGAAGUUUGGACUGGGCAGAGCUCAACACAGCGUGGCAAAGUGGCUGUGGCUAGACUGCCUCUCUGGAAUCCUCGUCACUCAGCAGGGCAUCUCUGAGAGAAACGCC,1.03
12,UACGUAGGUGGUUUUCCCCUGAUGGUGCUAAGGGGGCCUGGAAGUUCGGACUGGGCAGAGCUCAACACAGCGUGGCAAAGAGGCUGUGGCUAGACUGCCUCUCUGGAUUCCUCGUCACUCAGCAGGGCAUCUCAGAGAGAAAUGCC,2.59
13,UACGUAGGUGGUUUUCCCCUGAUGGUGCUAAGGGGGCCUGGAAGUUUGGACUGGGCAGAGCUCAACACAGCGUGGCAAAGUGGCUGCGGCUAGACUGCCUCUCUGGAUUCCUCGUCACUCAGCAGGGCAUCUCUGGGAGAAAUGCC,0
14,UACGUAGGUGGUUUUCCCCUGAUGGCGCUAAGGGGGCCUGGAAGUUUGGACUGGGCAGAGCUCAGCACAGCGUGGCAGAGUGGCUGUGGCUAGACUGCCUCUCUGGAUUCCUCGUCACUCAGCAGGGCAUCUCUGAAAGAAAUGCC,0
15,UACGUAGGUGGUUUUCCCCUGAUGGUGCUAAGGGGGCCUGGAAGUUUGGACUGGGCAGAGCUCAACACAGCGUGGCAAAGUGGCUGUGGCUAGACUGCCUCUCUGGAUUCCUCGCCACUCAGCAGGGCAUCUCUGAGAGAGAUGCC,1.77
16,UACGUAGGUGGUUUUCCCCUGAUGGAGCUAAGGGGGCCUGGAAGUUUGGACCGGGCAGAGCUCAACACAGCGUGGCAAAGUGGCUGUGGCUAGACUGCCUCUCUGGAUUCCUCGUCACUCAGCAGGGCAUCUCUGAGAGAAAUGCC,1.77
17,UACGUAGGUGGUUUUCCCCUGAUGGUGCUAAGGGGGCCUGGAAGUCUGGACUGGGCAGAGCUCAACACAGCGUGGCAAAGUGGCUGUGGCUAGACCGCCUCUCUGGAUUCCUCGUCACUCAGCAGGGCGUCUCUGAGAGGAAUGCC,0
18,UACGUAGGUGGUUUUCCCCUGAUGGUGCUAAGGAGGCCUGGAAGUUUGGACUGGGCAGGGCUCAACACAGCGUGGCAAAGUGGCUGUGGCUAGAUUGCCUCUCUGGAUUCCUCGUCACUCAGCAGGGCAUCUCUGAGAGAAAUGCC,0.09
19,UACGUAGGUGGUUUUCCCCUGAUGGUGCUAAGGGGGCCUGGAAGCUUGGACUGGGCAGAGCUCAACACAGCGUGGCAAAGUGGCUGUGGCUAGACUGCCUCUCUGGAUUCCUCGUCACUCAGCGGGGCAUCUCUGAGAGAAAUGCC,1.84
